Laboratory results from PubChem BioAssay AID1768 (National Center for Advancing Translational Sciences (NCATS), 2009).
Several values for one entry are separate records, joined by “and”; a condition that tells them apart may be missing. Identical values can stand only once. The whole screen tested about 270,000 compounds, of which about 620 (0.23%) were called active. Inconclusive means that the source gave no clear call. Such entries were picked first, then a sample of the others. Calls come from the whole dose curve; as a rule, active = well fitted inhibition curve with a large enough effect in the polarisation, with a control signal flat (not every such curve was filed as active); inconclusive = small, poorly fitted or top-dose-only effect, or effect the other way, or a change in a side signal; inactive = no such curve, though single readings can be large or run the other way; the % refers to the polarisation. Potencies of inconclusive entries are doubtful fits and often do not repeat. A note “side channel” means that the fit belongs to a control or component signal, not to the main read-out.

Target: Menin (Homo sapiens) (UniProt O00255)
Test: qHTS Assay for Inhibitors Targeting the Menin-MLL Interaction in MLL Related Leukemias: Competition With Texas Red Labeled MLL-derived Mutant Peptide
Details: fluorescence polarization; series mostly up to 61.6 µM
Potency is the fitted concentration of half-maximal effect; tags give direction and shape of the fitted curve or compound fluorescence and quenching.

Chain of UniProt O00255 (O00255 whole entry, looked up): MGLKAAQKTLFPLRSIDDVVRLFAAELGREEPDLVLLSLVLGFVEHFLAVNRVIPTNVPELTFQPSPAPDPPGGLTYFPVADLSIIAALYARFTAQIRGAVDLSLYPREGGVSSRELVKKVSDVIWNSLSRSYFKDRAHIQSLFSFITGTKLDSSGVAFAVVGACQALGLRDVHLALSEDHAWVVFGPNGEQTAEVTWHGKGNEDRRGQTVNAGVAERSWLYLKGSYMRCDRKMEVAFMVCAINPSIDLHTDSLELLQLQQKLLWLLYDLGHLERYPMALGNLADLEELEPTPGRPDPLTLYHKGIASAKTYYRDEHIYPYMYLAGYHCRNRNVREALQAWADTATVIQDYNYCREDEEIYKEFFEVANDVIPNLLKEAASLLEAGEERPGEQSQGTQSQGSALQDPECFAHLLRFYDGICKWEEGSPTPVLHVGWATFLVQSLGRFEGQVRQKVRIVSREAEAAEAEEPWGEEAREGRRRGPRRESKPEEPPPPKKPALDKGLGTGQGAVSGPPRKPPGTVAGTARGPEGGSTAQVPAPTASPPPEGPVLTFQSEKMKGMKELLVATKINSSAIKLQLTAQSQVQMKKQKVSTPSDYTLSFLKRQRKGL

Row | Structure (SMILES) | Potency
1 | CCN(CC)c1ccc(N2C(=O)c3ccccc3C2=O)cc1 | inconclusive: 39.8 µM [quencher, side channel, single point]
2 | CN(C)CCN(Cc1ccc(Cl)cc1)c1ccccn1 | inactive
3 | O=c1c2ccccc2c(C=Nc2cccc(S(=O)(=O)NCc3ccco3)c2)c(O)n1-c1ccc(Cl)cn1 | inconclusive: 11.2 µM [inhibitor, partial curve]
4 | Cc1cc(=O)[nH]c2n[nH]c(-c3ccccc3)c12 | inactive
5 | COc1cc(/C=C(\C#N)c2ccccn2)ccc1OCC(=O)Nc1ccc(Br)cc1 | inactive
6 | O=C(c1ccc2c(=O)n3c(nc2c1)CCCCC3)N1CCN(C(c2ccccc2)c2ccccc2)CC1 | inconclusive: 1.58 µM [fluorescent, side channel, full curve]
7 | COc1ccc(C(=O)NNC(=O)C(Cc2ccc(O)cc2)NC(=O)c2ccccc2NC(=O)c2ccc(OC)cc2)cc1 (centres undefined) | inconclusive: 39.8 µM [inhibitor, single point]
8 | O=C(C[n+]1cc(Br)cc(Br)c1)c1ccc(-c2ccccc2)cc1 | inconclusive: 28.2 µM [quencher, side channel, single point]
9 | CCC(C)NC(=O)Cn1c(=O)n(-c2ccc(OC)cc2)c(=O)c2ccc(C(=O)NCc3ccc(C)cc3)cc21 (centres undefined) | inconclusive: 12.6 µM [fluorescent, side channel, partial curve]
10 | NC(=S)NN=C1c2cc(OCCN3CCOCC3)ccc2-c2ccc(OCCN3CCOCC3)cc21 | inconclusive: 25.1 µM [quencher, side channel, partial curve]
11 | Cc1c(OC(=O)c2ccc([N+](=O)[O-])cc2)c2c(c[n+]1C)COC(C)(C)OC2 | inactive
12 | Cc1onc(-c2c(Cl)cccc2Cl)c1C(=O)NC1C(=O)N2C1SC(C)(C)C2C(=O)O (centres undefined) | inactive
13 | Cc1ccsc1C1Nc2ccccc2-c2nc3ccccc3n21 (centres undefined) | inconclusive: 25.1 µM [quencher, side channel, partial curve]
14 | Fc1cccc(CN2CCN(c3ncccn3)CC2)c1 | inconclusive: 1 µM [inhibitor, full curve]
15 | CC1(C)Oc2ccc(NC(=O)C3COc4ccccc4O3)cc2O1 (centres undefined) | inactive
16 | O=[N+]([O-])c1ccccc1S(=O)(=O)N1CCN(Cc2cc3c(cc2O)OCO3)CC1 | inconclusive: 39.8 µM [quencher, side channel, single point]
17 | Cc1cc(OCC(=O)NNC(=O)c2cccs2)ccc1Br | inconclusive: 25.1 µM [fluorescent, side channel, single point]
18 | COc1c(Cl)cc(Cl)cc1C(=O)Nc1ccc(NC(=O)c2cccs2)cc1 | inconclusive: 39.8 µM [inhibitor, single point]
19 | Cc1cc(NS(=O)(=O)c2ccc(NC(=O)N[C@H](C(=O)O)C(C)C)cc2)no1 | inconclusive: 31.6 µM [inhibitor, single point]
20 | CCOC(=O)CN(C(=O)c1ccccc1)c1ccccc1C | inconclusive: 11.2 µM [inhibitor, partial curve]

Row | Structure (SMILES) | Potency
21 | Cn1nccc1NC(=O)Nc1ccccc1 | inactive
22 | COC(=O)[C@@H](NC(=O)O[C@@H]1C(=O)c2ccc(OC)cc2O[C@H]1c1ccc2c(c1)OCO2)C(C)C | inactive
23 | CC(=O)/C(=N/Nc1ccccc1)N1CCOCC1 | inactive
24 | O=C(Oc1ccccc1)N1CCC2(CCCN(c3ncccn3)C2)CC1 | inactive
25 | C=CCc1ccc(O)c(-c2cc(CC=C)ccc2O)c1 | inconclusive: 17.8 µM [quencher, side channel, partial curve] and inconclusive: 25.1 µM [quencher, side channel, partial curve, poor fit]
26 | CCOC(=O)CSc1nnc(CNC(=O)c2cccs2)n1-c1cc(C)ccc1C | inconclusive: 8.91 µM [inhibitor, single point]
27 | NC1=NC(=O)/C(=C/c2cc(Br)c(O)c(Br)c2)S1 | inconclusive: 25.1 µM [quencher, side channel, partial curve]
28 | O=C(Nc1cccc(F)c1)C1CC(=O)N(c2ccc(Br)cc2)C1 (centres undefined) | inconclusive: 20 µM [quencher, side channel, single point]
29 | Oc1ccc(N=Cc2c(O)ccc3ccccc23)cc1 | inconclusive: 15.8 µM [quencher, side channel, single point]
30 | COCCN=c1scc(-c2cccs2)n1/N=C/c1ccc(O)c(O)c1O | inconclusive: 14.1 µM [quencher, side channel, partial curve]
31 | CN1/C(=C\C=C2/SC(=S)N(CC(=O)O)C2=O)C(C)(C)c2ccccc21 | inconclusive: 14.1 µM [fluorescent, side channel, partial curve]
32 | O=C1Nc2ccc(F)cc2C12Nc1ccccc1-c1nnc(SCc3ccccc3Cl)nc1O2 (centres undefined) | inconclusive: 39.8 µM [quencher, side channel, single point]
33 | O=C(N=Nc1ccc(NOC(=O)c2ccccc2Br)cc1)c1ccccc1O | inconclusive: 12.6 µM [quencher, side channel, partial curve]
34 | Cc1nc(CNS(=O)(=O)c2cc(F)ccc2F)cs1 | inactive
35 | NC(=O)N/N=C/c1ccccc1OCc1cccc2ccccc12 | inconclusive: 35.5 µM [fluorescent, side channel, partial curve]
36 | COc1cccc(CC2(CO)CCCN(CC3=Cc4cc(OC)ccc4OC3)C2)c1 (centres undefined) | inconclusive: 14.1 µM [inhibitor, partial curve]
37 | Cc1cc2oc(C(=O)N(Cc3ccccc3)C3CCS(=O)(=O)C3)c(C)c2cc1C (centres undefined) | inconclusive: 15.8 µM [fluorescent, side channel, partial curve]
38 | CCc1cccc2c(C(=O)COC(=O)c3ccc(O)cc3)c[nH]c12 | inconclusive: 17.8 µM [inhibitor, partial curve]
39 | Cc1ccc2cc(CN(Cc3ccco3)C(=O)c3ccccc3)c(=O)[nH]c2c1C | inconclusive: 2.24 µM [fluorescent, side channel, partial curve]
